# Data published in the supplement of paper PMC8728848.
# Some of the results follow.
# B1: Epa1-NP-mutant-Y228A (Candida glabrata), Q6VBJ0 (protein)
# chain: MILNPALFLNKCVCIYTTLILLLLTNGGYATSSNDISLASKDPTTFPLGCSPDITTPKKGLSMELYSYDFRKKGSYPCWDAAYLDPNYPRTGYKSHRLLAKVDGVTGNINFYYHATKGCTPQLGHLPASYNYPKPLTMTNFTMLLYGYFRPKVTGFHTFTISADDLLFVNFGAGNAFDCCRRDSSADHFGNYQAYAIWGSKTAKDELTVHLDAGVYYPIRLFYNNREADGALSFTFKTESNENTVSDFSEYFFSLDDTEEGCPGLISYDSSCASVKTSKIIGIDYHTETPNENLVPITKTIYHLGIPCTGTTTTPLCGSGFYDPLANKCVTINTSSTSSVTKTTSHTTSKEVSFHSSISSQKTLIPKSIPSPYGPIKSQSIPTEMETSSEISSSEYAFSDVISTPSHSPYTKKHSSLNSSSYTSTVIHSLTSYSISQGIFSTSLSEQNITSKSSTDKFSTATSMSNNITQSSIIISQFSTNNENYTTTSMHTSSDKISTETLNNSISTTTSILFSNSSTILKNNTTIISSDKDTHYHPVNPTIVCSTNKTEIICASITQPSISNSNNHWSSSVLKFNSTTVRSTLPSSAGSNETSINVPFSSSTESNTSTSSTSTSNSKMVRSTLPSSAGSNETSISVPFSSSTESNTSTSSTSTSNSKMVRSTLPSSAGSNETSINVPFSSSTESNTSTSSTSTSNSKTVRSTPFSSAGIIMTSLSQRNNKSASSYASSNSKCYNTADSCRKVHSTPSYLLTSSYTSEGVDYDCSLVSTKLKINDTNCVNNKHTTKSCLKTSVTTTIPTLEIKTARKSSSNTIGLHSYPTSSPNKSISSAPIIGYISSFKTIKTASPSYQTSDLTTITTITSLNNPGSTAVENTHESNDKSRKTSSNDISSKHSVIKETKDAVESSNKSHQTNTLKCSSIIIASSSHNSYESLGGTTLTLTLSKVYSPQNNDTLPFLEISEVNPSRTVLPESSKMMQYLTSTEERNKTARNTIATNIVSISTFHFEGEGNAIRMGYTQLLLMLIGIIVMNIGT
# Experiments:
# Experiment in all cases: glycan array binding signal (z-score within array); higher = stronger binding
# Conditions in all cases: glycan notation: IUPAC condensed, linker removed; mutation: Y228A
# [1] = molecular target: Gal(b1-4)GalNAc(b1-3)[Fuc(a1-2)]Gal(b1-4)GlcNAc
# How it was run: (§1)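 Glycan array data were curated from 3228 arrays in the Consortium for Functional Glycomics database and kept only where the protein sequence was available. Glycan names were converted to IUPAC-condensed notation, and columns mapping to the same glycan were averaged. The binding signal is a within-array Z-score, averaged across arrays of the same protein sequence at different concentrations or buffers and across linkers. Negative Z-scores can be read as non-binding.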
# Gal(b1-4)Glc = molecular target: Gal(b1-4)Glc
# How it was run: as §1
# Gal(b1-4)Glc6S = molecular target: Gal(b1-4)Glc6S
# How it was run: as §1
# Gal(b1-4)GlcNAc = molecular target: Gal(b1-4)GlcNAc
# How it was run: as §1
# [2] = molecular target: Gal(b1-4)GlcNAc(a1-6)Gal(b1-4)GlcNAc
# How it was run: as §1
# Gal(b1-4)GlcNAc(b1-2)Man = molecular target: Gal(b1-4)GlcNAc(b1-2)Man
# How it was run: as §1
# [3] = molecular target: Gal(b1-4)GlcNAc(b1-2)Man(a1-3)Man(b1-4)GlcNAc(b1-4)GlcNAc
# How it was run: as §1
# [4] = molecular target: Gal(b1-4)GlcNAc(b1-2)Man(a1-3)[Gal(b1-4)GlcNAc(b1-2)Man(a1-6)]Man(b1-4)GlcNAc(b1-4)GlcNAc
# How it was run: as §1
# [5] = molecular target: Gal(b1-4)GlcNAc(b1-2)Man(a1-3)[Gal(b1-4)GlcNAc(b1-2)Man(a1-6)]Man(b1-4)GlcNAc(b1-4)[Fuc(a1-6)]GlcNAc
# How it was run: as §1
# [6] = molecular target: Gal(b1-4)GlcNAc(b1-2)Man(a1-3)[Gal(b1-4)GlcNAc(b1-2)Man(a1-6)][Gal(b1-4)GlcNAc(b1-4)]Man(b1-4)GlcNAc(b1-4)[Fuc(a1-6)]GlcNAc
# How it was run: as §1
# [7] = molecular target: Gal(b1-4)GlcNAc(b1-2)Man(a1-3)[Gal(b1-4)GlcNAc(b1-2)Man(a1-6)][GlcNAc(b1-4)]Man(b1-4)GlcNAc(b1-4)[Fuc(a1-6)]GlcNAc
# How it was run: as §1
# [8] = molecular target: Gal(b1-4)GlcNAc(b1-2)Man(a1-3)[GlcNAc(b1-2)Man(a1-6)]Man(b1-4)GlcNAc(b1-4)GlcNAc
# How it was run: as §1
# [9] = molecular target: Gal(b1-4)GlcNAc(b1-2)Man(a1-3)[GlcNAc(b1-4)][Gal(b1-4)GlcNAc(b1-2)Man(a1-6)]Man(b1-4)GlcNAc(b1-4)GlcNAc
# How it was run: as §1
# [10] = molecular target: Gal(b1-4)GlcNAc(b1-2)Man(a1-3)[Man(a1-6)]Man(b1-4)GlcNAc(b1-4)GlcNAc
# How it was run: as §1
# [11] = molecular target: Gal(b1-4)GlcNAc(b1-2)Man(a1-6)Man(b1-4)GlcNAc(b1-4)GlcNAc
# How it was run: as §1
# [12] = molecular target: Gal(b1-4)GlcNAc(b1-2)Man(a1-6)[GlcNAc(b1-2)Man(a1-3)]Man(b1-4)GlcNAc(b1-4)GlcNAc
# How it was run: as §1
# [13] = molecular target: Gal(b1-4)GlcNAc(b1-2)Man(a1-6)[Man(a1-3)]Man(b1-4)GlcNAc(b1-4)GlcNAc
# How it was run: as §1
# [14] = molecular target: Gal(b1-4)GlcNAc(b1-2)[Gal(b1-4)GlcNAc(b1-4)]Man(a1-3)[Gal(b1-4)GlcNAc(b1-2)Man(a1-6)]Man(b1-4)GlcNAc(b1-4)GlcNAc
# How it was run: as §1
# [15] = molecular target: Gal(b1-4)GlcNAc(b1-2)[Gal(b1-4)GlcNAc(b1-4)]Man(a1-3)[Gal(b1-4)GlcNAc(b1-2)[Gal(b1-4)GlcNAc(b1-6)]Man(a1-6)]Man(b1-4)GlcNAc(b1-4)GlcNAc
# How it was run: as §1
# [16] = molecular target: Gal(b1-4)GlcNAc(b1-2)[Gal(b1-4)GlcNAc(b1-4)]Man(a1-3)[GlcNAc(b1-4)][Gal(b1-4)GlcNAc(b1-2)Man(a1-6)]Man(b1-4)GlcNAc(b1-4)GlcNAc
# How it was run: as §1
# [17] = molecular target: Gal(b1-4)GlcNAc(b1-2)[Gal(b1-4)GlcNAc(b1-4)]Man(a1-3)[GlcNAc(b1-4)][Gal(b1-4)GlcNAc(b1-2)[Gal(b1-4)GlcNAc(b1-6)]Man(a1-6)]Man(b1-4)GlcNAc(b1-4)GlcNAc
# How it was run: as §1
# [18] = molecular target: Gal(b1-4)GlcNAc(b1-2)[Gal(b1-4)GlcNAc(b1-6)]Man(a1-6)[Gal(b1-4)GlcNAc(b1-2)Man(a1-3)]Man(b1-4)GlcNAc(b1-4)GlcNAc
# How it was run: as §1
# [19] = molecular target: Gal(b1-4)GlcNAc(b1-2)[Gal(b1-4)GlcNAc(b1-6)]Man(a1-6)[Gal(b1-4)GlcNAc(b1-2)Man(a1-3)]Man(b1-4)GlcNAc(b1-4)[Fuc(a1-6)]GlcNAc
# How it was run: as §1
# [20] = molecular target: Gal(b1-4)GlcNAc(b1-2)[Gal(b1-4)GlcNAc(b1-6)]Man(a1-6)[GlcNAc(b1-4)][Gal(b1-4)GlcNAc(b1-2)Man(a1-3)]Man(b1-4)GlcNAc(b1-4)GlcNAc
# How it was run: as §1
# [21] = molecular target: Gal(b1-4)GlcNAc(b1-2)[Gal(b1-4)GlcNAc(b1-6)]Man(a1-6)[GlcNAc(b1-4)][Gal(b1-4)GlcNAc(b1-2)[Gal(b1-4)GlcNAc(b1-4)]Man(a1-3)]Man(b1-4)GlcNAc(b1-4)[Fuc(a1-6)]GlcNAc
# How it was run: as §1
# [22] = molecular target: Gal(b1-4)GlcNAc(b1-3)Gal(b1-3)GalNAc
# How it was run: as §1
# [23] = molecular target: Gal(b1-4)GlcNAc(b1-3)Gal(b1-3)GlcNAc
# How it was run: as §1
# [24] = molecular target: Gal(b1-4)GlcNAc(b1-3)Gal(b1-4)Glc
# How it was run: as §1
# [25] = molecular target: Gal(b1-4)GlcNAc(b1-3)Gal(b1-4)GlcNAc
# How it was run: as §1
# [26] = molecular target: Gal(b1-4)GlcNAc(b1-3)Gal(b1-4)GlcNAc(b1-2)Man(a1-3)[Gal(b1-4)GlcNAc(b1-3)Gal(b1-4)GlcNAc(b1-2)Man(a1-6)]Man(b1-4)GlcNAc(b1-4)GlcNAc
# How it was run: as §1
binder,measurement,setting,value
B1,glycan array binding signal (z-score),[1],-0.146
same,glycan array binding signal (z-score),Gal(b1-4)Glc,0.267
same,glycan array binding signal (z-score),Gal(b1-4)Glc6S,2.93
same,glycan array binding signal (z-score),Gal(b1-4)GlcNAc,0.003
same,glycan array binding signal (z-score),[2],0.654
same,glycan array binding signal (z-score),Gal(b1-4)GlcNAc(b1-2)Man,-0.138
same,glycan array binding signal (z-score),[3],-0.23
same,glycan array binding signal (z-score),[4],-0.259
same,glycan array binding signal (z-score),[5],-0.248
same,glycan array binding signal (z-score),[6],-0.062
same,glycan array binding signal (z-score),[7],-0.176
same,glycan array binding signal (z-score),[8],-0.254
same,glycan array binding signal (z-score),[9],-0.279
same,glycan array binding signal (z-score),[10],-0.242
same,glycan array binding signal (z-score),[11],-0.173
same,glycan array binding signal (z-score),[12],-0.252
same,glycan array binding signal (z-score),[13],-0.227
same,glycan array binding signal (z-score),[14],0.397
same,glycan array binding signal (z-score),[15],0.67
same,glycan array binding signal (z-score),[16],-0.248
same,glycan array binding signal (z-score),[17],0.836
same,glycan array binding signal (z-score),[18],1.2
same,glycan array binding signal (z-score),[19],1.58
same,glycan array binding signal (z-score),[20],-0.223
same,glycan array binding signal (z-score),[21],0.803
same,glycan array binding signal (z-score),[22],-0.276
same,glycan array binding signal (z-score),[23],-0.136
same,glycan array binding signal (z-score),[24],-0.179
same,glycan array binding signal (z-score),[25],-0.202
same,glycan array binding signal (z-score),[26],0.007
